According to the supplement of paper PMC10126150:
Values marked as one replicate rest on one cluster of the flow cell; about a third of the high ones do not repeat.

system: ATP; test: switch fluorescence ratio, 500 uM ATP over buffer (Cy3 cluster intensity, sum of 5 cycles each) (fold (ratio)); higher = stronger signal-on switching upon ATP binding; sequences stand for … in TCGTCGGCAGCGTCAGATGTGTATAAGAGACAGTTTTTTTTTTTTTTTTTTTTTTTTT…TC; conditions: aptamer strand: ATP DNA aptamer (quencher-CACCTGGGGGAGTATTGCGGAGGAAGG + anchor), 100 nM annealed; ATP concentration: 500 uM; one replicate
Outline: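 Clusters with intensities outside 100-1000 RFU were excluded. The remaining Cy3-labelled switching-strand clusters on a modified Illumina MiSeq flow-cell had been annealed to 100 nM quencher-labelled ATP aptamer and imaged in selection buffer, then after 15 min with 500 uM ATP at 22 °C, for five cycles separated by NaOH stripping and re-annealing. The fluorescence ratio, averaged per switch-domain sequence, is each cluster's summed target-cycle Cy3 intensity over its summed buffer-cycle Cy3 intensity.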
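Further: ATP exposure 15 min at 22 °C before imaging.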

| Sequence | switch fluorescence ratio |
| --- | --- |
| GTCGATCATG | 0.969 |
| GTCGATCG | 0.978 |
| GTCGATGCTA | 1.02 |
| GTCGATTTCG | 1.02 |
| GTCGCAGGTC | 1.08 |
| GTCGCGCTAG | 0.977 |
| GTCGCTAAAA | 1.05 |
| GTCGCTTTTT | 1 |
| GTCGGAAAG | 0.964 |
| GTCGGAAGCC | 1.04 |
| GTCGGCTTAT | 1.11 |
| GTCGGCTTCA | 1.03 |
| GTCGGGAA | 1.03 |
| GTCGGGCGGA | 0.988 |
| GTCGTAACAT | 1.01 |
| GTCGTAATCG | 1.01 |
| GTCGTAATTC | 1.18 |
| GTCGTCCTGG | 1.03 |
| GTCGTCTTAG | 1.03 |
| GTCGTGCTTC | 0.998 |
| GTCGTTGCTG | 1.03 |
| GTCGTTGTAT | 1.01 |
| GTCGTTGTGT | 1.02 |
| GTCGTTTCTT | 0.95 |
| GTCTAACGCT | 0.978 |

| Sequence | switch fluorescence ratio |
| --- | --- |
| GTCTAAGATC | 1.04 |
| GTCTAGTTTC | 0.996 |
| GTCTATGGGA | 0.991 |
| GTCTATTGAA | 0.962 |
| GTCTCAGAAA | 1.01 |
| GTCTCCATTG | 0.954 |
| GTCTCTATGC | 0.943 |
| GTCTCTGCAC | 1.51 |
| GTCTGAATGG | 0.904 |
| GTCTGACCGA | 1.06 |
| GTCTGCTTGG | 1.02 |
| GTCTGGATTC | 0.969 |
| GTCTGGCAGC | 0.938 |
| GTCTGTTTTT | 0.964 |
| GTCTTAAATA | 1 |
| GTCTTAACTG | 1.1 |
| GTCTTAGTCA | 0.967 |
| GTCTTCTGCT | 1.02 |
| GTCTTGCG | 0.93 |
| GTCTTTTAAC | 0.949 |
| GTGAAAAAGC | 1 |
| GTGAAAATCC | 1.07 |
| GTGAACGGTT | 1.01 |
| GTGAAGCGAC | 1.37 |
| GTGAAGTTAT | 0.998 |

| Sequence | switch fluorescence ratio |
| --- | --- |
| GTGAATACTA | 0.999 |
| GTGAATATAG | 0.964 |
| GTGAATCATT | 1.01 |
| GTGAATCCTT | 0.962 |
| GTGACATAGG | 1.06 |
| GTGACCATCG | 0.994 |
| GTGACCATGT | 0.99 |
| GTGACGGCAT | 0.984 |
| GTGACGGGCC | 1.01 |
| GTGACGGTCC | 0.994 |
| GTGACTCATC | 1.01 |
| GTGACTCCAG | 1.05 |
| GTGACTGAGC | 0.949 |
| GTGACTTCGT | 1.06 |
| GTGAGACGGG | 0.978 |
| GTGAGCGATG | 1.01 |
| GTGAGGATGT | 1.06 |
| GTGATACCGA | 1.08 |
| GTGATACCTT | 1.12 |
| GTGATAGAGC | 1.06 |
| GTGATAGGTA | 1.01 |
| GTGATCCGAT | 1.02 |
| GTGATGAGTA | 0.93 |
| GTGATGCCCG | 0.985 |
| GTGATTCTTT | 1.01 |

| Sequence | switch fluorescence ratio |
| --- | --- |
| GTGCAAGAGG | 0.988 |
| GTGCAAGATT | 1.03 |
| GTGCACAAAG | 1.02 |
| GTGCAGGGCA | 0.971 |
| GTGCAGGGCG | 0.97 |
| GTGCATGACC | 1.05 |
| GTGCCCGGGA | 1.02 |
| GTGCCGAGGT | 1.04 |
| GTGCCTCTCA | 1 |
| GTGCGACTAG | 0.986 |
| GTGCGATGGT | 1.05 |
| GTGCGCCGAA | 0.943 |
| GTGCGCTTAA | 1.05 |
| GTGCGGGTCC | 0.985 |
| GTGCGTTGGT | 0.987 |
| GTGCTATGTA | 1 |
| GTGCTTCAGT | 0.98 |
| GTGCTTTAAT | 1 |
| GTGGAATAGG | 0.963 |
| GTGGACAGTA | 0.978 |
| GTGGACTCGA | 1.02 |
| GTGGATCCTG | 1.04 |
| GTGGATTGTT | 0.973 |
| GTGGCAACCA | 1 |
| GTGGCCACTC | 0.967 |

| Sequence | switch fluorescence ratio |
| --- | --- |
| GTGGCCTGGC | 0.976 |
| GTGGCGGTCG | 0.947 |
| GTGGCTCCGT | 0.988 |
| GTGGGAGCCC | 1.02 |
| GTGGGGACAA | 0.995 |
| GTGGGGATAC | 1.14 |
| GTGGGGCAAT | 1.19 |
| GTGGGTAAGA | 1.02 |
| GTGGGTCCGG | 0.996 |
| GTGGGTTTAG | 0.994 |
| GTGGTAGATC | 1.1 |
| GTGGTATAGT | 0.952 |
| GTGGTCATTC | 1.01 |
| GTGGTCGGTG | 1.01 |
| GTGGTGTCG | 1.03 |
| GTGGTTGTAA | 0.975 |
| GTGTAAAGGG | 1.03 |
| GTGTAATCGG | 0.981 |
| GTGTACAATT | 0.97 |
| GTGTACGGCG | 1.04 |
| GTGTAGTTTG | 1 |
| GTGTATACAG | 0.968 |
| GTGTATGGTT | 0.995 |
| GTGTCACTAT | 1.02 |
| GTGTCAGCTT | 1.01 |

| Sequence | switch fluorescence ratio |
| --- | --- |
| GTGTCGCGAT | 0.966 |
| GTGTGAAAAT | 0.965 |
| GTGTGACAGT | 0.987 |
| GTGTGACTCT | 1.03 |
| GTGTGCCATG | 0.972 |
| GTGTGCGGCG | 0.94 |
| GTGTGCGTTT | 1.02 |
| GTGTGCTACC | 1.05 |
| GTGTGGCCCG | 1.02 |
| GTGTGGGCCG | 1.01 |
| GTGTGGGTTT | 1 |
| GTGTGTCCAT | 1.05 |
| GTGTGTGCTC | 0.921 |
| GTGTGTTACA | 0.967 |
| GTGTTAGGCA | 1.03 |
| GTGTTATCTC | 0.984 |
| GTGTTCCGA | 1.02 |
| GTGTTCCGCT | 1.07 |
| GTGTTCGGTC | 0.96 |
| GTGTTGAGTC | 0.972 |
| GTGTTGCTTT | 1.01 |
| GTGTTGGAC | 0.989 |
| GTGTTGTATC | 1.03 |
| GTTAAAGTAC | 1.36 |
| GTTAAATGCG | 0.971 |

| Sequence | switch fluorescence ratio |
| --- | --- |
| GTTAAATTCC | 2.3 |
| GTTAACAATG | 1.02 |
| GTTAACTCGA | 1.01 |
| GTTACCCTG | 0.985 |
| GTTACCGGTA | 1.02 |
| GTTACCTATA | 1.07 |
| GTTACGCCCG | 0.963 |
| GTTACGTCCT | 0.991 |
| GTTAGAAATC | 0.976 |
| GTTAGAAGAA | 0.979 |
| GTTAGAGAAT | 0.975 |
| GTTAGATCAA | 0.983 |
| GTTAGGAGAG | 0.933 |
| GTTAGTCATC | 0.978 |
| GTTAGTTTGT | 1.01 |
| GTTATAGGCA | 1.01 |
| GTTATAGTG | 1.03 |
| GTTATATCGG | 0.974 |
| GTTATCGGGT | 0.968 |
| GTTATGGGCC | 0.992 |
| GTTATTACAC | 0.992 |
| GTTCAAAACG | 1.02 |
| GTTCAAGTG | 0.975 |
| GTTCAATATA | 1.04 |
| GTTCACCTCG | 1.01 |

| Sequence | switch fluorescence ratio |
| --- | --- |
| GTTCACGGTT | 1.04 |
| GTTCATAATG | 1 |
| GTTCCAACCT | 1.48 |
| GTTCCAGATC | 0.939 |
| GTTCCTGTG | 0.995 |
| GTTCGCCTTA | 1.03 |
| GTTCGGGATG | 1 |
| GTTCGGTCTT | 0.98 |
| GTTCTAGAGT | 1.05 |
| GTTCTATGAG | 1.01 |
| GTTCTCAGTT | 0.957 |
| GTTCTCTAGG | 1.02 |
| GTTCTGCGCT | 1.01 |
| GTTCTGTATT | 1.01 |
| GTTCTTCCTG | 1.03 |
| GTTGAACGCC | 1.17 |
| GTTGAAGTTC | 1.02 |
| GTTGACACGA | 1.04 |
| GTTGAGCGGA | 0.971 |
| GTTGAGGCAT | 0.981 |
| GTTGATAATC | 0.999 |
| GTTGATGGAT | 0.955 |
| GTTGCAGCTA | 1.01 |
| GTTGCCGTTC | 0.914 |
| GTTGCGATGG | 1.07 |
